Data on 1 molecule can be found in the supplement of paper PMC8728848.

The other results are listed elsewhere or left out.

Assay [1] deals with Neu5Gc(a2-8)Neu5Gc(a2-6)Gal(b1-4)GlcNAc. The experiment in a line: glycan array binding signal (z-score within array); higher = stronger binding. The settings on record: glycan notation: IUPAC condensed, linker removed. Summed up: (§1)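 The binding signal is a Z-score computed within each array. Data were drawn from 3228 arrays in the Consortium for Functional Glycomics database, restricted to those with a known protein sequence. Scores were averaged over arrays of the same protein sequence at different concentrations or buffers, and over linkers, and negative values can be taken as non-binding.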

The target of assay [2] is Neu5Gc(b2-6)Gal(b1-4)GlcNAc. The description is as above. Particulars: glycan notation: IUPAC condensed, linker removed. An outline of the steps: as §1

B1: BT3172pd (Bacteroides thetaiotaomicron) (protein)
chain: MLPLRAEHYYYKQISLKEGLPSNVRCILRDEQGFIWIGTKAGLGKFDGHQLKRYKHQANDPHSLLHNLIYQIAEDKQHNIWILTEKGIARYQQQSNNFTFPTDEEGNYITAYSFCLVPDGILFGGKDRIYKYSYKDSSLRLLQYFNANSFKITALSVWDSKTLLCCSRWTGLYLVDLQTGEHRRPPFDCGPEITSMITDSKNRIWIAPYSGGLRCYSRDGKLSASYTTHNSSLSNDIVLSLAEREEQLWIGTDGGGINILHPETGEISQLEYIPGRENYSLPANSILCLHNDYNNNVWAGSTCNGLISIREVSMKTYTDVVPGNDRGLSNGTVRSLYRQSPDSIWIGTDGGGINLFSPHTEKFTHYSSTWGDKVAFISGFTPGKLLISLFSKGVFVFNPATGEKQPFTIIDKETTTRLCNRGKSVNLYQNTPNTVLFLGDHIYQYHLKEKKFSTITEEEGKDIVGTLVPFDHQENLTYINDIKHIYELDDQTSRLKTVFECYTDTVISSVSHDEQGHFWIGSNFGLIHYDPVLKSRTLVPTNLFTEINMVLCDQKGKVWIGVDNMLFAYFIKEQKFVLFGESNGAIQNEYLPNARLVNEQGDAYIGGVKGMLRIDGQLLLNTSEMPELQLLDITINGESANHEWYNHPAKISVPWNSNISIRIMSREEDIFRQKIYRYQIEGLNNEYTESYNPELVIRSLLPGSYRIMASCTAKDGSWIPDQQVLELTVLPPWYRTHHHHHH
B1: the “glycan array binding signal (z-score)” value in assay [1] was -0.966; in assay [2] it was 1.33.
